ChEMBL document CHEMBL4888484, “Replenishing the malaria drug discovery pipeline: Screening and hit evaluation of the MMV Hit Generation Library 1 (HGL1) against asexual blood stage Plasmodium falciparum ,using a nano luciferase reporter read-out” (2022)
In all, about 150,000 compounds went through this assay and about 540 (0.36%) showed an effect of 50% or more. The list shows a part of the results.

Test system: Plasmodium falciparum
Test: Primary screen in NF54 nanoGlo assay, in single point, at 2uM, 72h; a lower Z score goes with more inhibition
Type: functional, Erythrocyte
Conditions: timepoint 72 hour

Structure (SMILES)	% Inhibition	Z score
COc1cc(-c2ccno2)ccc1S(=O)(=O)Nc1cccc2c1CCCC2	1%	-0.12
COc1cc(OC)cc(-c2c3c(O)nn(C(C)C)c3nc3[nH]c(=O)n(C)c23)c1	-3%	0.3
Cn1c(Cn2c(=O)n(C3=CCCCC3)c3ccccc32)nnc1C1CC1	-17%	3.22
CCN(Cc1ccncc1)[C@H]1CCCN(C(=O)Cn2cnnn2)C1	4%	-0.74
CC(=O)c1ccc(NCCC(=O)c2ccc3c(c2)OCO3)cc1	-14%	1.52
CN(CCO)Cc1nnc(C2CCN(c3nc(C(N)=O)cs3)CC2)n1C	-1%	0.06
N#Cc1ncn(Cc2csc(C3CC3)n2)c1C#N	-11%	0.96
CCN1C[C@@H](C(=O)Nc2cc(C)ns2)CCC1=O	6%	-0.89
COc1ccc([C@H]2CC(=O)NCc3nc(N(C)C)sc32)cc1CN(C)C	-18%	1.65
O=C(COc1ccc(OCc2ccccc2)cc1)N1CCCC1	0%	0.02
CC(C)(C(=O)O)c1ccc(S(=O)(=O)N2Cc3ccccc3C2)cc1	-6%	1.22
Cc1sc(NC(=O)C(C)C)c(C(=O)N2CCNC(=O)CC2)c1C	13%	-1.67
Cc1ncc(CNCc2ccccc2CN2C(=O)NC3(CCCCC3)C2=O)o1	-10%	1.04
CCOc1cc(CNC(=O)[C@H](C)n2c3ccccc3c3cnn(C)c(=O)c32)ccc1OC	-9%	0.92
Cc1ccc(C[C@H](C)NC(=O)CCN2C(=O)CCC2=O)s1	2%	-0.32
C[C@H](NC(=O)N1CC(C(C)(C)O)C1)c1ccc(Cl)c2ccccc12	-6%	0.96
CCC(CC)C(=O)Nc1ccccc1NC(=O)C(CC)CC	-1%	0.18
CCn1ccc(CNC(=O)N[C@@](C)(COC)c2ccccc2)n1	-3%	0.43
Cc1nn(-c2ccccc2)c(Oc2ccc(F)cc2F)c1CN(CC1CC1)C[C@H](O)COC(C)C	3%	-0.41
Cc1nccn1CC1(CNC(=O)Nc2ccc(C#N)nc2)CC1	-5%	0.74
Cn1cc(OCC(=O)N2CCC[C@H]2COc2ccccc2)cn1	-7%	0.98
CC(=O)N1CC(C)(C)c2cc(S(=O)(=O)N[C@@H](C)Cc3ccco3)ccc21	-13%	1.58

Structure (SMILES)	% Inhibition	Z score
Cc1ccc2nc(-c3ccc(Cl)cc3OS(=O)(=O)c3ccccc3OC(F)(F)F)oc2c1	-7%	1.18
Cc1nc(CN2CC(=O)Nc3ccccc32)sc1C	0%	0
Cc1cc(C(=O)Nc2nnc(-c3ccc(S(C)(=O)=O)cc3)o2)no1	0%	0.04
Cc1ccc(-n2nc(C(=O)NCCc3ccccn3)c(=O)n(Cc3ccccc3)c2=O)cc1	-25%	2.23
O=C(Nc1cccc2c1CCCC2)N1CCS(=O)(=O)CC1	-4%	0.65
CN(CC1(CO)CCCC1)c1ncc(F)cn1	-4%	0.84
O=C(O)c1cccc(C(=O)N2CCC[C@H]2c2cccs2)n1	-8%	1.19
O=C(NCC[C@H]1CCCN1)c1cc(-c2ccco2)nc2c(Cl)cccc12	-4%	0.71
O=C(Nc1cccc(S(=O)(=O)N2CCCCC2)c1)c1n[nH]c2ccccc12	-11%	1.95
CN1C(=O)Cc2cc(Br)cnc21	-1%	0.14
O=C(Cc1noc(-c2nn[nH]c2-c2ccccc2)n1)NC1CCCCC1	-17%	2.17
COC(=O)N(C)CC(=O)Nc1cc(OC)cc(OC)c1	-4%	0.61
CCCn1cnnc1CN(C)CCc1cccc(C)n1	-13%	1.68
CCCOc1ccc(CN[C@@H](C)c2ccnn2C)cn1	-3%	0.61
Cn1ncc2c(N3CCc4n[nH]cc4C3)nc(CCc3ccccc3)nc21	-1%	0.14
Cc1csc(NC(=O)c2cccnc2C2CC2)n1	-4%	0.41
CCN(CC(=O)N1CCN(c2ccc(-c3cccc(OC)c3)nn2)CC1)S(=O)(=O)c1ccc(Cl)cc1	-8%	1.48
CCOC(=O)N1CCN([C@H]2CCCN(C(=O)c3ccc4[nH]c(C)c(C)c4c3)C2)CC1	-15%	2.7
C[C@@H](Cc1cc2ccccc2o1)NC(=O)C1CCOCC1	-14%	2.34
CCCn1nc(C(=O)N2CCCc3c(Cl)ccc(F)c32)ccc1=O	-2%	0.21
CN(Cc1csc(-c2ccccc2)n1)C(=O)Cn1nnnc1CN1CCOCC1	-6%	0.92
Cc1nnsc1CNC(=O)c1cc(N)[nH]n1	-15%	1.3

Structure (SMILES)	% Inhibition	Z score
COc1cccc(NC(=O)N2CCS(=O)(=O)CC2)n1	-14%	2.62
COc1ccc(CC(=O)N2CCC3(CC2)C(=O)NCCCN3C)cc1OC	-1%	0.08
CC1CCN(c2nc3c(c(N4CCCC4)n2)CN(C(=O)NCc2ccccc2)CC3)CC1	3%	-0.44
C[C@@H](C(=O)N1CCC(O)(c2ccnn2C)CC1)c1ccccc1	0%	-0.09
Cc1c(C)n(C[C@@H](O)Cn2cnc3ccccc32)c2ccc(F)cc12	-1%	0.11
CC(C)N1CCC(C(=O)N2CCCC[C@H]2c2nc3ccccc3[nH]2)CC1	-4%	0.41
N#CC1CCN(C(=O)N[C@H]2CCCC[C@@H]2c2ccccc2)CC1	0%	-0.02
Cn1nc2n(c1=O)CCN(C(=O)Cc1ccccc1O)C2	-2%	0.38
COCCN(CCOC)S(=O)(=O)N(C[C@@H](O)CC(C)(C)C)C1CCN(C)CC1	-5%	0.72
COc1ncccc1CNC(=O)N1CCC[C@H]1c1ccc(C)o1	-7%	1.17
Cn1cc(Cl)cc1C(=O)N1CCN(Cc2ccccc2F)C(=O)C1	-2%	0.24
O=C(NCc1csc(N2CCOCC2)n1)N1CC(Oc2ccccc2F)C1	-10%	1.21
CN(C(=O)[C@@H]1COCCO1)C1CCC(CO)CC1 (some centres not stated)	-6%	1
O=C(C1CCCCN1C(=O)C1Cc2ccccc2O1)N1CCOCC1 (configuration not stated)	-14%	1.88
Cc1scc(C(=O)N2CC(C(=O)N(C)C)CCC2C(=O)O)c1C (configuration not stated)	-1%	0.24
O=S(=O)(c1ccccc1)N1CC[C@H](c2ccc3c(c2)CCO3)C1	-15%	1.78
CCc1ccc(NCn2nc(C)cc2C)cc1	-3%	0.41
CCOCC(=O)N[C@H]1CCN(C2CCCCCC2)C1	-2%	0.28
CC(NCC1(C(O)C(C)C)CC1)c1cncc(F)c1 (configuration not stated)	-10%	1.43
C[C@H](O)C#Cc1ncc(C(F)(F)F)cc1Cl	-5%	0.87
COC(=O)[C@@H](CC(C)C)NC(=O)NCc1ccccc1	33%	-3.76
Cc1cncnc1N(C)C[C@H]1CCc2nc(C(F)(F)F)cn2C1	-8%	1.67

Structure (SMILES)	% Inhibition	Z score
CCCn1ncc(C(=O)N2CCC[C@H](c3nc(-c4cccnc4)no3)C2)c1C	-10%	1.32
CCc1nnc(CN2C[C@@H]3CC[C@H]2CN(C(=O)c2ccccn2)C3)o1	-5%	0.77
CC(C)c1nsc(N2CCN([C@H]3CCS(=O)(=O)C3)CC2)n1	-2%	0.28
CC(C)n1[nH]c(=O)c2c1NC(=O)C[C@@H]2c1ccc(C#N)cc1	31%	-3.47
CN(C(=O)c1ccncc1F)c1ccc(N2CCOCC2)nc1	-1%	0.22
CCN(CC(=O)NC(C)(C#N)C1CC1)C(C)c1ccc(F)cc1 (configuration not stated)	-13%	2.42
CC(C)c1ccc(NC(=O)CCS(=O)(=O)c2ccc3c(c2)CC(=O)N3C)cc1	-7%	0.89
COc1cc(OC)c(NC(C)=O)cc1Br	-9%	1.7
COc1ccc2c(c1)[C@@H](N(Cc1ccccc1)Cc1nccn1Cc1ccccc1)CCO2	0%	0.01
Clc1ccc(CN(Cc2cnoc2C2CC2)C2CC2)cc1	-11%	1.4
c1ccc(-n2nccc2-c2nc3c(cnn3CC3CC3)[nH]2)cc1	-18%	2.16
Cc1[nH]c(-c2ccc(F)cc2)cc1C(=O)N1CC(C)CC(C)C1 (configuration not stated)	-7%	1.38
O=C(Cn1ccnc1)Nc1ccc2[nH]c(-c3cccs3)nc2c1	-5%	0.65
CCc1ccc(Nc2ncnc3c(-c4ccc(C)cc4)noc23)cc1	-1%	0.15
Cc1ccoc1C(=O)N[C@H](c1cncc(Br)c1)C1CC1	5%	-0.47
COc1ccc(Cl)cc1NC(=O)Cn1c(N2CCN(c3ccccc3)CC2)nc(C)cc1=O	-11%	1.75
O=C(Cc1cccnc1)NC1Cc2ccccc2C1	-2%	0.33
C1=CC2CC1CC2CN1CCN(c2ncccn2)CC1 (configuration not stated)	-10%	1.4
O=C(O)C1CC1C(=O)N(CC1CCC1)CC(F)(F)F (configuration not stated)	-11%	1.25
CCCc1cnc(C)nc1-c1ccc(C(=O)N[C@@H](C)c2nc(CC)no2)cc1	-8%	1.21
